# In article PMC4336329 (PLoS ONE, 2015):
# About 2,200 (0.71%) of roughly 310,000 compounds showed an effect of 50% or more. The effect is printed as a negative number. The list shows a part of the results.
# Target: human ether-à-go-go-related gene (hERG) potassium channel (human, UniProt Q12809)
# Test: primary screen, population patch clamp on CHO cells stably expressing hERG
# Chain of human ether-à-go-go-related gene (hERG) potassium channel (Q12809 whole entry, looked up): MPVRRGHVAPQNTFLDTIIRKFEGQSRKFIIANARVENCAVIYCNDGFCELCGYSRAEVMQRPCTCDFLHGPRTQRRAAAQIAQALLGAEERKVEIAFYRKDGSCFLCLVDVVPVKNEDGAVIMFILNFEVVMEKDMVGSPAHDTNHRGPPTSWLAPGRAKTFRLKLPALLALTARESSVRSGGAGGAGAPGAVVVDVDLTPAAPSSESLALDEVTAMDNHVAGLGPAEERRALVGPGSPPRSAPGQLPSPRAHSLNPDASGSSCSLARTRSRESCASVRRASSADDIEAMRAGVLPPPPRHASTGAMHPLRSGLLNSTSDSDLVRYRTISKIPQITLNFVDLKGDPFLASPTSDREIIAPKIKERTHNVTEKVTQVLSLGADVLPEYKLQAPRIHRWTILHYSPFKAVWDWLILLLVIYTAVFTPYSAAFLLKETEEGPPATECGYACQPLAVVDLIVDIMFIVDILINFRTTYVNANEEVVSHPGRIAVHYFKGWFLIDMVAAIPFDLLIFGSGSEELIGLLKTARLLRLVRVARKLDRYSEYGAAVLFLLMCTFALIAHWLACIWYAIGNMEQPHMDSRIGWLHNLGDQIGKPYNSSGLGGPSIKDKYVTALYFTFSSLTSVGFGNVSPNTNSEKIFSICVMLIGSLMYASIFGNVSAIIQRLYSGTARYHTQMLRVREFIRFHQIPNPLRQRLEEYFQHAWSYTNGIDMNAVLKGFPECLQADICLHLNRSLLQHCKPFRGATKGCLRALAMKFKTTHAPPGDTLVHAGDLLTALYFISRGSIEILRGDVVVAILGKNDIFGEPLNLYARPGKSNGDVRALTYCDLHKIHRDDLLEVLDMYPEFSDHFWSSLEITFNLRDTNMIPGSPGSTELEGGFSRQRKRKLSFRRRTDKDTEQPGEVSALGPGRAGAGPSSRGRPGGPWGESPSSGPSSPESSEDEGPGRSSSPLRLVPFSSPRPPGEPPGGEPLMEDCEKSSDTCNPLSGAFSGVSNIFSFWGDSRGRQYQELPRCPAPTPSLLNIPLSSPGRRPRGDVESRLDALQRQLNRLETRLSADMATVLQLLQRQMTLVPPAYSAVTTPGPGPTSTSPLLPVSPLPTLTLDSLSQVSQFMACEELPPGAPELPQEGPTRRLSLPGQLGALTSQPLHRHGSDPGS
row,Structure (SMILES),"hERG current change (%, negative = inhibition) at 1uM [%]"
1,Cc1cc(C)c2nc(-c3ccccn3)cc(C(=O)NCc3ccco3)c2c1,10.6
2,Cc1nc2ccc(C(=O)Nc3ccc(N(C)C)cc3)cc2s1,15.3
3,Cc1cc([N+](=O)[O-])nn1CC(=O)N(C)Cc1ccccc1,12.5
4,O=C(CSc1nnc(SCc2ccc(Cl)cc2)s1)N/N=C/c1ccccc1C(=O)O,7.06
5,O=C(c1cc(F)c(F)cc1Cl)N1CCN(CCc2ccccc2)CC1,-34.7
6,Cc1ccc(-n2c(C)cc(C(=O)COc3cccnc3[N+](=O)[O-])c2C)cc1,13
7,Oc1ccc2nnc3c(Br)cnn3c2c1,15.4
8,Cc1cc(C)cc(NS(=O)(=O)c2cc3[nH]c(=O)c(=O)[nH]c3cc2C)c1,9.98
9,COc1ccccc1N1CCc2c(C)nc3c(OC)cccc3c21,-23.1
10,O=C(NC(=O)c1ccccc1)Nc1ccccc1O,10.5
11,C[C@]12C(=O)N(c3ccc(Br)cc3)C(=O)N1[C@@H]1c3ccccc3OC[C@@H]1[C@H]2c1ccccc1,16.9
12,COCCn1c(SCC(=O)c2c[nH]c3ccccc23)nnc1-c1ccncc1,7.84
13,COc1ccc(C(=O)NCC(=O)OC2CCCCC2=O)cc1 (stereo not shown),-0.0213
14,COc1ccc([N+](=O)[O-])cc1N(CC(=O)Nc1ccccc1C(=O)NC(C)C)S(C)(=O)=O,12.9
15,COCCNC(=O)Cn1cnc2sc(C)c(S(=O)(=O)N3CCC(C)CC3)c2c1=O,10.8
16,COc1ccc(NC(=O)N2CCCCCC2)cc1OC,12.5
17,CO/N=C(/CS(=O)c1ccc(Br)cc1)c1ccc(OC)cc1 (stereo not shown),7.07
18,CN1CCN(C2=NC3(CCCC3)C(C#N)C(=O)N2)CC1 (stereo not shown),12.3
19,Cc1nnc(SCC(=O)NC2CCCCC2)n(N)c1=O,-5.16
20,Cc1ccc(/C(N)=N/OC(=O)c2ccc3c(c2)OCO3)cc1,4.94
21,Clc1ccc(-c2nnc(N3CCCC3)nn2)cc1,6.43
22,COC(=O)CC1COc2ccccc2N1C(=O)c1ccc(Cl)cc1 (stereo not shown),-6.42
23,O=C(CSc1nc2sc3c(c2c(=O)[nH]1)CCC3)NCCO,2.83
24,COc1ccc2c(c1)c(-c1csc(N)n1)c(C)n2C,8.78
25,O=C(Nn1c(=O)[nH]c2ccccc2c1=O)c1ccco1,0.905
